In publication PMC4336329 (PLoS ONE, 2015):
Hit rate of the full screen: of about 310,000 compounds, about 2,200 (0.71%) showed an effect of 50% or more. Effects have a minus sign here. The list shows a part of the results.

Target: human ether-à-go-go-related gene (hERG) potassium channel (human, UniProt Q12809)
Experiment: primary screen, population patch clamp on CHO cells stably expressing hERG

Chain of human ether-à-go-go-related gene (hERG) potassium channel (Q12809 whole entry, looked up): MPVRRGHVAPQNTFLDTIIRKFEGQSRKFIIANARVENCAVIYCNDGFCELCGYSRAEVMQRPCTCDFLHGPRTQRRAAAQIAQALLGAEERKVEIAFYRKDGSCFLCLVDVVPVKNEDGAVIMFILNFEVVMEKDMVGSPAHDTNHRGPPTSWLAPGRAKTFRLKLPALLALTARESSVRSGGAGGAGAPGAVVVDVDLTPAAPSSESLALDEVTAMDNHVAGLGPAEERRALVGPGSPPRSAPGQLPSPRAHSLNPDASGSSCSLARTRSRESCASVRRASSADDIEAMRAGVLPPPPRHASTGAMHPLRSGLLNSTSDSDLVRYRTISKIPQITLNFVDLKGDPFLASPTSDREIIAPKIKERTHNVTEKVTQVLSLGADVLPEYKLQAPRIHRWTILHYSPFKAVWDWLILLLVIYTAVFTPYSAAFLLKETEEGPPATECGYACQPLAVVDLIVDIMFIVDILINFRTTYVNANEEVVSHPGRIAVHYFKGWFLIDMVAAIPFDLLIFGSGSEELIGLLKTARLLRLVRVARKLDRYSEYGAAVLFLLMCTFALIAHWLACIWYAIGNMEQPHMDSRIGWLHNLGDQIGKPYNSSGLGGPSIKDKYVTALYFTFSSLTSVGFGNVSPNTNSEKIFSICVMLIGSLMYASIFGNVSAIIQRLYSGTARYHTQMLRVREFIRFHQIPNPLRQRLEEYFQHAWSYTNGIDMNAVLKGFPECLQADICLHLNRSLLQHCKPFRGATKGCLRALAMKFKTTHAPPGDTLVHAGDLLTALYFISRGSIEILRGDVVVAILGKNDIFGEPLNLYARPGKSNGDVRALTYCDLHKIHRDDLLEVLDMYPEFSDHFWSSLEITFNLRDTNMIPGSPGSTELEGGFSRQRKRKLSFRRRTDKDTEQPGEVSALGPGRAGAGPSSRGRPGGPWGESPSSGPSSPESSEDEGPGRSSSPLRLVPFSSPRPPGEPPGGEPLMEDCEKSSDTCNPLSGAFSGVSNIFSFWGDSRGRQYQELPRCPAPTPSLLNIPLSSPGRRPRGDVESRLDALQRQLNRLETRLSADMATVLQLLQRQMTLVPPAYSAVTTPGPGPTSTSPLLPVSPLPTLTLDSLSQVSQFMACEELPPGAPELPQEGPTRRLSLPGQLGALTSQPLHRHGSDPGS

Point of comparison: O=C(O)c1ccccc1C(=O)c1ccc2c(c1)N(Cc1ccc(Cl)c(Cl)c1)C(=O)CO2, “hERG current change (%, negative = inhibition) at 1uM” value 7.58%. Against it:
- CC1(C2CC2)NC(=O)N(CC(=O)Nc2ccccc2-c2ccccc2)C1=O (stereo not drawn) — higher, 15%
- Cc1cc(C)nc(SCc2cn3c(C)cccc3n2)n1 — higher, 13.6%
- O=C(CSc1nccn1-c1ccc(F)cc1)NCc1ccc2c(c1)OCO2 — lower, 3.65%
- O=C(CSc1n[nH]c(-c2ccncc2)n1)Nc1ccccc1Cl — higher, 12.2%
- CCN(CC)CCOC(=O)C(Cc1ccco1)Cc1cccc2ccccc12.O=C(O)C(=O)O (stereo not drawn) — lower, -62.8%
- COc1cc(Cl)c(C)cc1NC(=O)COc1cc(C)nc(C(C)C)n1 — lower, 6.55%
- CCCCOCCCNC(=O)N[C@@H](CC(C)C)C(=O)O — lower, -5.11%
- CC1Cc2ccccc2N1S(=O)(=O)c1cccc(C(=O)Nc2cccnc2)c1 (stereo not drawn) — lower, -5.15%
- COc1ccc(NC2CCCN(C(=O)CCn3cccn3)C2)cc1 (stereo not drawn) — higher, 20.6%
- COc1ccc2nc(Nc3nc(CSc4nnc(C)s4)cc(=O)[nH]3)nc(C)c2c1 — lower, 4.59%
- Cc1ccccc1N1C(=O)C(Cl)=C(N2CCN(c3ccccc3)CC2)C1=O — higher, 12.9%
- BrCC(Br)(Br)Br — higher, 19.6%
- CC(C(=O)Nc1ccc(Br)cc1C(=O)c1ccccc1)N1CCCCC1 (stereo not drawn) — lower, -3.23%
- Cc1cc(NC(=O)Nc2ccccc2F)ccc1Br — higher, 14.8%
- Cc1ccc(-n2ncc3c2CC(C)(C)CC3NC(=O)c2c(C)noc2C)cc1 (stereo not drawn) — lower, -13%
- COc1ccc(/C=N/Nc2nc(Nc3ccccc3)nc(N3CCCCC3)n2)c(OC)c1 — higher, 13.1%
- Cc1ccc(CCNC(=O)CCS(=O)(=O)c2ccc3nc(C)sc3c2)cc1 — lower, 6.44%
- COc1cc(C(=O)NCCC(=O)N2CCCCC2)cc(OC)c1OC — higher, 12.3%
- COc1cccc2c(SCC(=O)N/N=C/c3ccccc3)cc(C)nc12 — higher, 15%
- COC(=O)c1ccc(C(=O)Nc2ccc(C(C)C)cc2N)cc1 — higher, 19.4%
- CCc1nc(OCc2ccccc2)c2sc3nc4c(cc3c2n1)COC(C)(C)C4 — lower, -4.86%
- Cc1cc(=O)oc2cc(OCc3ccc(C(=O)OCC(=O)NC4CCS(=O)(=O)C4)cc3)ccc12 (stereo not drawn) — lower, 3.64%
- O=C(CCNC(=O)Cn1ccc2ccccc2c1=O)NCCN1CCc2ccccc2C1 — higher, 10.5%
